Results from patent US20210047304A1, “Bromodomain Inhibitors” (AbbVie Inc., priority 2016, published 2021).

Molecular target: BRD4 (BDII_E352-M457) (Homo sapiens, UniProt O60885)
Experiment: TR-FRET bromodomain binding assay, BRD4 BDII
Description: A time-resolved fluorescence resonance energy transfer (TR-FRET) assay was used to determine the affinities of compounds of the Examples listed in Table 1 for each bromodomain of BRD4. […] An Alexa647-labeled BET-inhibitor was used as the fluorescent probe in the assay.
(§1) Compound dilution series were prepared in DMSO via an approximately 3-fold serial dilution. Compound dilutions were added directly into white, low-volume assay plates (Perkin Elmer Proxiplate 384 Plus #6008280) using a Labcyte Echo in conjunction with Labcyte Access and Thermo Multidrop CombinL robotics. Compounds were then suspended in eight microliters (μL) of assay buffer (20 mM Sodium Phosphate, pH 6.0, 50 mM NaCl, 1 mM Ethylenediaminetetraacetic acid disodium salt dihydrate, 0.01% Triton X-100, 1 mM DL-Dithiothreitol) containing His-tagged bromodomain, Europium-conjugated anti-His antibody (Invitrogen PV5596) and Alexa-647-conjugated probe.
After a one-hour equilibration at room temperature, TR-FRET ratios were determined using an Envision multilabel plate reader (Ex 340, Em 495/520).
TR-FRET data were normalized to the means of 24 no-compound controls (“high”) and 8 controls containing 1 μM un-labeled probe (“low”). Percent inhibition was plotted as a function of compound concentration and the data were fit with the 4 parameter logistic equation to obtain IC50s. Inhibition constants (Ki) were calculated from the IC50s, probe Kd and probe concentration.
Compound dilution series for Compounds A-E were prepared in DMSO via an approximately 3-fold serial dilution from 0.47 mM to 7.8 nM.
as §1, with “Compound” for “Compound dilution series were prepared in DMSO via an approximately 3-fold serial dilution. Compound”
The final concentration of 1× assay mixture contained 2% DMSO, 8 nM His-tagged bromodomain, 1 nM Europium-conjugated anti-His-tag antibody and 100 nM or 30 nM probe (for BDI or BDII, respectively) and compound concentration in the range of 9.19 μM-150 pM.
TR-FRET data were normalized to the means of 24 no-compound controls (“high”) and 8 controls containing 1 μM un-labeled probe (“low”). Percent inhibition was plotted as a function of compound concentration and the data were fit with the 4 parameter logistic equation to obtain IC50s. Inhibition constants (Ki) were calculated from the IC50s, probe Kd and probe concentration. Typical Z′ values were between 0.65 and 0.75. The minimum significant ratio was determined to evaluate assay reproducibility (Eastwood et al., (2006) J Biomol Screen, 11: 253-261). The MSR was determined to be 2.03 for BDI and 1.93 for BDII, and a moving MSR (last six run MSR overtime) for both BDI and BDII was typically <3.

Molecule COCC(C)(C)C(=O)N[C@H]1CC[C@H](Oc2cc(=O)n(C)cc2-c2cc(C(C)(C)O)ccc2Oc2c(C)cc(F)cc2C)CC1 [Example 71, N-[trans-4-({5-[2-(4-fluoro-2,6-dimethylphenoxy)-5-(2-hydroxypropan-2-yl)phenyl]-1-methyl-2-oxo-1,2-dihydropyridin-4-yl}oxy)cyclohexyl]-3-methoxy-2,2-dimethylpropanamide] has a Ki of 5.55 nM.

Molecule Cc1cc(F)cc(C)c1Oc1ccc(C(C)(C)O)cc1-c1cn(C)c(=O)cc1O[C@H]1CC[C@H](N2CCOC2=O)CC1 [Example 38, 5-[2-(4-fluoro-2,6-dimethylphenoxy)-5-(2-hydroxypropan-2-yl)phenyl]-1-methyl-4-{[trans-4-(2-oxo-1,3-oxazolidin-3-yl)cyclohexyl]oxy}pyridin-2(1H)-one] has a Ki of 2.38 nM.

Cc1cc(F)cc(C)c1Oc1ccc(C(C)(C)O)cc1-c1cn(C)c(=O)cc1O[C@H]1CC[C@H](N2C(=O)[C@@H](C)N(C)C2=O)CC1 [Example 81, (5R)-3-[trans-4-({5-[2-(4-fluoro-2,6-dimethylphenoxy)-5-(2-hydroxypropan-2-yl)phenyl]-1-methyl-2-oxo-1,2-dihydropyridin-4-yl}oxy)cyclohexyl]-1,5-dimethylimidazolidine-2,4-dione] was tested, and the Ki was 2.19 nM.

With COC(=O)N[C@H]1CC[C@H](Oc2cc(=O)n(C)cc2-c2cc(C(C)(C)O)ccc2Oc2c(C)cc(C(C)(C)O)cc2C)CC1 [Example 20, methyl {trans-4-[(5-{5-(2-hydroxypropan-2-yl)-2-[4-(2-hydroxypropan-2-yl)-2,6-dimethylphenoxy]phenyl}-1-methyl-2-oxo-1,2-dihydropyridin-4-yl)oxy]cyclohexyl}carbamate] the Ki was 1.06 nM.

Cc1cc(F)cc(C)c1Oc1ccc(C(C)(C)O)cc1-c1cn(C)c(=O)cc1O[C@H]1CC[C@H](N2C(=O)CN(C)C2=O)CC1 [Example 78, 3-[trans-4-({5-[2-(4-fluoro-2,6-dimethylphenoxy)-5-(2-hydroxypropan-2-yl)phenyl]-1-methyl-2-oxo-1,2-dihydropyridin-4-yl}oxy)cyclohexyl]-1-methylimidazolidine-2,4-dione] gave a Ki of 1.86 nM.

With CC(=O)N(CCO)[C@H]1CC[C@H](Oc2cc(=O)n(C)cc2-c2cc(C(C)(C)O)ccc2Oc2c(C)cc(F)cc2C)CC1 [Example 54, N-[trans-4-({5-[2-(4-fluoro-2,6-dimethylphenoxy)-5-(2-hydroxypropan-2-yl)phenyl]-1-methyl-2-oxo-1,2-dihydropyridin-4-yl}oxy)cyclohexyl]-N-(2-hydroxyethyl)acetamide] the Ki was 5.66 nM.

With Cc1cc(F)cc(C)c1Oc1ccc(C(C)(C)O)cc1-c1cn(C)c(=O)cc1NC1CCC(C)(O)CC1 (stereo not drawn) [Example 23, 5-[2-(4-fluoro-2,6-dimethylphenoxy)-5-(2-hydroxypropan-2-yl)phenyl]-4-[(trans-4-hydroxy-4-methylcyclohexyl)amino]-1-methylpyridin-2(1H)-one] the Ki was 32.9 nM.

In the case of CC(=O)N[C@H]1CC[C@H](Oc2cc(=O)n(C)cc2-c2cc(C(C)(C)O)cnc2Oc2c(C)cc(C(C)(C)O)cc2C)CC1 [Example 17, N-[trans-4-({5′-(2-hydroxypropan-2-yl)-2′-[4-(2-hydroxypropan-2-yl)-2,6-dimethylphenoxy]-1-methyl-6-oxo[1,6-dihydro[3,3′-bipyridine]]-4-yl}oxy)cyclohexyl]acetamide], the Ki is reported as 1.43 nM.

With CCc1c(-c2cc(C(C)(C)O)ccc2Oc2c(C)cc(F)cc2C)c(O[C@H]2CC[C@H](N3CCCC3=O)CC2)cc(=O)n1C [Example 33, 6-ethyl-5-[2-(4-fluoro-2,6-dimethylphenoxy)-5-(2-hydroxypropan-2-yl)phenyl]-1-methyl-4-{[trans-4-(2-oxopyrrolidin-1-yl)cyclohexyl]oxy}pyridin-2(1H)-one] the Ki was 376 nM.

COCC1(C(=O)N[C@H]2CC[C@H](Oc3cc(=O)n(C)cc3-c3cc(C(C)(C)O)ccc3Oc3c(C)cc(F)cc3C)CC2)CC1 [Example 70, N-[trans-4-({5-[2-(4-fluoro-2,6-dimethylphenoxy)-5-(2-hydroxypropan-2-yl)phenyl]-1-methyl-2-oxo-1,2-dihydropyridin-4-yl}oxy)cyclohexyl]-1-(methoxymethyl)cyclopropane-1-carboxamide] showed a Ki of 4.83 nM.

For Cc1cc(F)cc(C)c1Oc1ccc(C(C)(C)O)cc1-c1cn(C)c(=O)cc1O[C@H]1CC[C@H](N2C(=O)CCC2C)CC1 (relative stereo) [Example 42, 5-[2-(4-fluoro-2,6-dimethylphenoxy)-5-(2-hydroxypropan-2-yl)phenyl]-1-methyl-4-{[trans-4-(2-methyl-5-oxopyrrolidin-1-yl)cyclohexyl]oxy}pyridin-2(1H)-one], the Ki was 1.77 nM.

In the case of Cc1cc(F)cc(C)c1Oc1ccc(C(C)(C)O)cc1-c1cn(C)c(=O)cc1O[C@H]1CC[C@H](N2C(=O)[C@H](C)N(C)C2=O)CC1 [Example 83, (5S)-3-[trans-4-({5-[2-(4-fluoro-2,6-dimethylphenoxy)-5-(2-hydroxypropan-2-yl)phenyl]-1-methyl-2-oxo-1,2-dihydropyridin-4-yl}oxy)cyclohexyl]-1,5-dimethylimidazolidine-2,4-dione], the Ki is reported as 2.97 nM.

CCN1CC(=O)N([C@H]2CC[C@H](Oc3cc(=O)n(C)cc3-c3cc(C(C)(C)O)ccc3Oc3c(C)cc(F)cc3C)CC2)C1=O [Example 127, 1-ethyl-3-[trans-4-({5-[2-(4-fluoro-2,6-dimethylphenoxy)-5-(2-hydroxypropan-2-yl)phenyl]-1-methyl-2-oxo-1,2-dihydropyridin-4-yl}oxy)cyclohexyl]imidazolidine-2,4-dione] gave a Ki of 6.77 nM.

CCNC(=O)[C@H]1CC[C@H](Oc2cc(=O)n(C)cc2-c2cc(C(C)(C)O)ccc2Oc2c(C)cc(F)cc2C)CC1 [Example 63, trans-N-ethyl-4-({5-[2-(4-fluoro-2,6-dimethylphenoxy)-5-(2-hydroxypropan-2-yl)phenyl]-1-methyl-2-oxo-1,2-dihydropyridin-4-yl}oxy)cyclohexane-1-carboxamide] gave a Ki of 5.51 nM.

With COCCN1CC(=O)N([C@H]2CC[C@H](Oc3cc(=O)n(C)cc3-c3cc(C(C)(C)O)ccc3Oc3c(C)cc(F)cc3C)CC2)C1=O [Example 135, 3-[trans-4-({5-[2-(4-fluoro-2,6-dimethylphenoxy)-5-(2-hydroxypropan-2-yl)phenyl]-1-methyl-2-oxo-1,2-dihydropyridin-4-yl}oxy)cyclohexyl]-1-(2-methoxyethyl)imidazolidine-2,4-dione] the Ki was 3.7 nM.

With Cc1cc(F)cc(C)c1Oc1ccc(C(C)(C)O)cc1-c1cn(C)c(=O)cc1O[C@H]1CC[C@H](N2C(=O)c3ccccc3C2=O)CC1 [Example 43, 2-[trans-4-({5-[2-(4-fluoro-2,6-dimethylphenoxy)-5-(2-hydroxypropan-2-yl)phenyl]-1-methyl-2-oxo-1,2-dihydropyridin-4-yl}oxy)cyclohexyl]-1H-isoindole-1,3(2H)-dione] the Ki was 3.48 nM.

Cc1cc(F)cc(C)c1Oc1ccc(C(C)(C)O)cc1-c1cn(C)c(=O)cc1O[C@H]1CC[C@H](N2CCCS2(=O)=O)CC1 [Example 52, 2-[trans-4-({5-[2-(4-fluoro-2,6-dimethylphenoxy)-5-(2-hydroxypropan-2-yl)phenyl]-1-methyl-2-oxo-1,2-dihydropyridin-4-yl}oxy)cyclohexyl]-1lambda^6,2-thiazolidine-1,1-dione] was tested, and the Ki was 2.47 nM.

With CC(=O)N(N)[C@H]1CC[C@H](Oc2cc(=O)n(C)cc2-c2cc(C(C)(C)O)ccc2Oc2c(C)cc(F)cc2C)CC1 [Example 98, N-[trans-4-({5-[2-(4-fluoro-2,6-dimethylphenoxy)-5-(2-hydroxypropan-2-yl)phenyl]-1-methyl-2-oxo-1,2-dihydropyridin-4-yl}oxy)cyclohexyl]acetohydrazide] the Ki was 20.5 nM.

Cc1cc(F)cc(C)c1Oc1ccc(C(C)(C)O)cc1-c1cn(C)c(=O)cc1O[C@H]1CC[C@H](C(=O)N(C)C)CC1 [Example 108, trans-4-({5-[2-(4-fluoro-2,6-dimethylphenoxy)-5-(2-hydroxypropan-2-yl)phenyl]-1-methyl-2-oxo-1,2-dihydropyridin-4-yl}oxy)-N,N-dimethylcyclohexane-1-carboxamide] was tested, and the Ki was 40.1 nM.
